Assay results published in the supplement of paper PMC11417369.
± gives the standard deviation of the averaged measurements. This is one part of the list.

Test system: PfAP2-EXP AP2 domain (GST-tagged)
Experiment: gcPBM binding intensity (ln(normalized median fluorescence intensity)); higher = stronger DNA binding
In short: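 The binding buffer was 1× PBS containing 1% milk, 0.2 mg/ml BSA, 0.5% salmon testes DNA and 0.03% Triton X-100. In it, GST-tagged P. falciparum DNA-binding domains expressed in E. coli were applied for 1 h to an Agilent 4 × 180k array of primer-extended double-stranded 36-bp intergenic genomic probes plus negative controls. Binding intensity, read with Alexa488 anti-GST antibody and a 488 nm scan, is the highest Masliner-normalised natural-log median intensity across replicate spots of either probe orientation.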

| Sequence | gcPBM binding intensity (ln) |
| --- | --- |
| TTTTTTTTCAATCTCTATATATTAAGGTTTATATTT [XGTACX_negctrl_site397] | 8.46 ± 0.44 |
| AAATATATTATTATCTTATCAATTAAAAGAATAAAC [CACACA_negctrl_site779] | 8.39 ± 0.33 |
| TAGCGCATAAAAAAAAAAAAATATATACTAATAAAT [GTGCAC_negctrl_site276] | 8.21 ± 0.61 |
| ACAACACTATATTACACATGCATTAAGAGAGTGAAC [TGCATGCA_site124] | 9.01 ± 0.47 |
| ACATTAAAATATGATTGTACATTTTATTATATTATA [XGTACX_site912] | 8.37 ± 0.24 |
| ATATAATTATTGATATGTACATATTTGTTCTAGTTT [XGTACX_site3012] | 8.82 ± 0.47 |
| ATTCAAATATTAAAAAGTACAAAAAAAAAACAAAAA [XGTACX_site1174] | 8.72 ± 0.45 |
| CTATCATATTTATGCACACAAAAATAATTAATTCGT [CACACA_site2614] | 8.59 ± 0.11 |
| TATTTTGAGAATAAATGTACGAATTTTATATTTAAA [XGTACX_site1336] | 8.15 ± 0.32 |
| ACCTGTTCATATGATCGTACACGTCAGTTTATATGA [XGTACX_site3869] | 8.85 ± 0.34 |
| GAGTATTCAAGTATTAGTACATATTATATAATAAAT [XGTACX_site7630] | 8.46 ± 0.31 |
| AATCCTTACGGACACACACACACGAATAAATAAAAA [CACACA_site4422] | 8.74 ± 0.55 |
| TAAAATAAAAATTAAAGTACATATGTATATATATAT [XGTACX_site3984] | 9.86 ± 0.19 |
| TACAAAATGGGGAACACACACATATATAAATAAATA [CACACA_site7751] | 8.9 ± 0.4 |
| ATAATTATTTTAGAAACACACAAATTAGAAAAAACA [CACACA_site3636] | 8.5 ± 0.26 |
| ACTGTAAAAGGATTTACACACATATTTACATTTACA [CACACA_site519] | 8.62 ± 0.39 |
| TACCAATGCATAACGGTGCAAAAAAATAAGGAATAA | 9.055 ± 0.007 |
| ATGCATATAACTACGTGTACAAATATACACAAATAC [XGTACX_site8811] | 8.91 ± 0.3 |
| TTTCCTTATTAAAACACACAAATACATTATTTAATC [CACACA_site7080] | 8.32 ± 0.45 |
| ATATATATATTTGTATGTACATATATATATTCGTAT [XGTACX_site1640] | 9.23 ± 0.29 |
| ACCCATAAAAAGGATACACACACACCCACCCATATA [CACACA_site8205] | 9 ± 0.58 |
| ACAAGTCAGGCAAAAACATGCATTATTTGAACATTA [TGCATGCA_site864] | 8.6 ± 0.55 |

| Sequence | gcPBM binding intensity (ln) |
| --- | --- |
| AAAAAAAAAAAAGGAGGTACACAATTTTATATATGC [XGTACX_site5296] | 8.6 ± 0.4 |
| ACATTTTTTTCATATCGTACATATTATAATATTTTC [XGTACX_site6524] | 8.9 ± 0.39 |
| GAGCATTACCCATATACACACATATATATAAACCTA [CACACA_site2737] | 8.72 ± 0.36 |
| TTTTGTTATTTTTTAGTGCATATAAAGGTTGTTAAG | 8.78 ± 0.14 |
| TTTTGCAATAATGTTGCACACTAAATAGTCATCTAT [CACACA_site4304] | 8.37 ± 0.31 |
| TAAAACAACAAAGAAAATGAAAAAGTAAAAACATAT [CACACA_negctrl_site1049] | 8.94 ± 0.47 |
| GTACGATAAAAAATTGGACAAAAAAAAAAAAAAAAT [XGTACX_negctrl_site158] | 8.45 ± 0.5 |
| ATTTCATAAATTAAACGTACATAATACACACACATG [XGTACX_site4155] | 9.09 ± 0.35 |
| AAAAACTAATCTTTAACATGCAACCGTTTATACATA [TGCATGCA_site363] | 8.51 ± 0.4 |
| TGAGTTACATACTAATGTACACAACAAAAAAAAAAA [XGTACX_site2390] | 8.56 ± 0.4 |
| AAAGGTTTATATGATACACACATAAGTGATCAGGTT [CACACA_site190] | 8.35 ± 0.45 |
| TTTTTTTGAACATATACACACTCTAAACTTATACAT [CACACA_site3917] | 8.6 ± 0.39 |
| TAATTTATGACACGCGCACACATATATATATAGTAA [CACACA_site4249] | 8.89 ± 0.49 |
| AAAAATTATGGACACACACACATATATATATATATT [CACACA_site4717] | 8.53 ± 0.31 |
| AATAAAATAAAATACACACATACATACATACAAATG [CACACA_site2438] | 8.86 ± 0.32 |
| GGTATACGCAAGTATACACACATATATATATATATA [CACACA_site3240] | 10.1 ± 0.47 |
| AAAGTGGCCATATATTTTTTTTTTTTTTTCCTTATT [CACACA_negctrl_site485] | 8.11 ± 0.53 |
| AAAAATAAAGGATATACACACTAATTATATATATAT [CACACA_site5550] | 9.54 ± 0.18 |
| ATTATTATATTTATATGTACATAGAAAAAATTAAAT [XGTACX_site2058] | 8.53 ± 0.42 |
| TAGTATCCAAGAAAAAGTACTTATTTTAATTTTTTA [XGTACX_site6243] | 8.03 ± 0.34 |
| TCAGATATATATATATAAATATATATTTTGAAATGT [CACACA_negctrl_site686] | 8.19 ± 0.26 |
| AATATTTATAAAGACACACAAACAAAAAGGATAAAA [CACACA_site2985] | 9 ± 0.57 |
